The results in this text go back to PubChem BioAssay AID2202238 (Ras Initiative Chemistry Research Team, Frederick National …, 2025).

The target of this test is GTPase KRas (Homo sapiens) (UniProt P01116). Put plainly: Covalent labelling of cysteine mutants by fragments, read by mass spectrometry (AID 2202238). Set-up: protein at 5 µM with 500 µM competing thiol for 1.5 h. Particulars: KRAS G12D cysteine mutants, disulfide tethering, MALDI-TOF labeling, stronger effect = higher value, fragment at 500 µM.
Chain of UniProt P01116 (P01116 whole entry, looked up, the tested form may be a part): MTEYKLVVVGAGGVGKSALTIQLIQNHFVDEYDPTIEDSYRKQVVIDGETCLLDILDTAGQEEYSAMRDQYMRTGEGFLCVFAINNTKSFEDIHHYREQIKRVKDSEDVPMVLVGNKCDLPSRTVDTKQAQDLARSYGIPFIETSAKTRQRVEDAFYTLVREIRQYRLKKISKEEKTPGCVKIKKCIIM
The mark [1] stands for this setting: measured here: G60C mutant labeling.
[2] abbreviates: measured here: G75C mutant labeling.
[3] abbreviates: measured here: H94C mutant labeling.
Setting [4] is: measured here: I36C mutant labeling.
[5] abbreviates: measured here: L120C mutant labeling.
Setting [6] is: measured here: M67C mutant labeling.
The mark [7] stands for this setting: measured here: M72C mutant labeling.
[8] abbreviates: measured here: N26C mutant labeling.
Setting [9] is: measured here: N86C mutant labeling.
Where [10] appears, read: measured here: P121C mutant labeling.
[11] abbreviates: measured here: S122C mutant labeling.
The mark [12] stands for this setting: measured here: S136C mutant labeling.

This is one part of the list. Further columns of the screen follow, without active or inactive calls.

For the compound `CC(C)c1nc(-c2ccccc2Cl)ncc1C(=O)NCCS`, the percent labeling by setting is: under setting [1], 30.6%; under setting [2], 13.2%; under setting [3], 13.6%; under setting [4], 10.4%; under setting [5], 11.2%; under setting [6], 9.9%. In addition, the percent labeling reads like this: under setting [7], 27.4%; under setting [8], 23.7%; under setting [9], 7.7%; under setting [10], 15.5%; under setting [11], 9.9%; under setting [12], 18.7%.

As to `O=C(NCCS)[C@@H]1CC[C@H](CN2CCOCC2)O1`, the percent labeling under setting [1] worked out at 15.3%; the percent labeling under setting [2] turned out to be 5.2%; the percent labeling under setting [3] came to 25.5%; the percent labeling under setting [4] was found to be 15.8%; the percent labeling under setting [5] was found to be 25.8%; the percent labeling under setting [6] was 27.5%. In addition, the percent labeling came to 7.3% under setting [7]; 23.5% under setting [8]; 15.8% under setting [9]; 24.5% under setting [10]; 27.6% under setting [11]; 32.7% under setting [12].

On to `O=C(CCS)NC1CCN(c2ncccn2)CC1`, for which the percent labeling is 13.6% under setting [2]; 32.2% under setting [3]; 42.5% under setting [4]; 32% under setting [5]; 47.2% under setting [6]; 21.7% under setting [7]. The percent labeling runs as follows: under setting [9], 18.3%; under setting [10], 35.6%; under setting [11], 37%; under setting [12], 63.3%.

Take `O=C(NCCS)C1CN=C(c2ccccc2)NC1` (stereo unspecified): the percent labeling by setting is: under setting [1], 33.3%; under setting [2], 16.4%; under setting [3], 35.1%; under setting [4], 42.1%; under setting [5], 33.1%; under setting [6], 42.1%. Also, the percent labeling is, setting by setting: under setting [7], 18.1%; under setting [8], 39.8%; under setting [9], 24.8%; under setting [10], 34.9%; under setting [11], 23.1%; under setting [12], 47.1%.

Consider `O=C(CC(N1CCOCC1)C(F)(F)F)NCCS` (stereo unspecified), for which the percent labeling runs as follows: under setting [1], 37.4%; under setting [2], 9.5%; under setting [3], 33.1%; under setting [4], 27.3%; under setting [5], 36.1%; under setting [6], 30.2%. The percent labeling was determined as 21.4% under setting [7]; 27.9% under setting [8]; 27.7% under setting [9]; 33% under setting [10]; 30.7% under setting [11]; 40.7% under setting [12].

As for `O=C(CCS)NCCNC(=O)Cn1ccc(C(F)(F)F)n1`, the percent labeling by setting is: under setting [2], 7.2%; under setting [3], 30.4%; under setting [4], 35.2%; under setting [5], 29%; under setting [6], 29.9%; under setting [7], 16.8%. The percent labeling is, setting by setting: under setting [9], 30.4%; under setting [10], 28.8%; under setting [11], 32.2%; under setting [12], 40.1%.

Turning to `N#Cc1ccc(-c2ccc3c(c2)N(C(=O)CCS)CCO3)cc1`, the percent labeling stood at 16.7% under setting [2]; 32.7% under setting [3]; 27.8% under setting [4]; 17.3% under setting [5]; 19.2% under setting [6]; 39.5% under setting [7]. The percent labeling by setting is: under setting [9], 22.8%; under setting [10], 19.8%; under setting [11], 7.9%; under setting [12], 46%.

Take `O=C(CCS)NCc1cc(COc2ccccc2F)on1`: the percent labeling was 9.6% under setting [2]; 30.1% under setting [3]; 27.2% under setting [4]; 21.1% under setting [5]; 47.6% under setting [6]; 35.4% under setting [7]. For the same compound, the percent labeling under setting [9] came out at 14.5%, the percent labeling under setting [10] is 22.8%, the percent labeling under setting [11] came out at 20.8% and the percent labeling under setting [12] came to 39.2%.

`O=C(NCCS)c1c(Cl)cccc1Oc1ccccc1Cl` came in with a percent labeling under setting [1] of 48.2%; a percent labeling under setting [2] of 14.3%; a percent labeling under setting [3] of 17.7%; a percent labeling under setting [4] of 7.7%; a percent labeling under setting [5] of 21.3%; a percent labeling under setting [6] of 22.5%. In addition, the percent labeling is, setting by setting: under setting [7], 32.1%; under setting [8], 26%; under setting [9], 5.1%; under setting [10], 11%; under setting [11], 7.7%; under setting [12], 31.9%.

Take `Cc1cc(C(=O)NCCS)ccc1-n1cnnn1`: the percent labeling under setting [1] turned out to be 25.8%; the percent labeling under setting [2] was 16%; the percent labeling under setting [3] is 22.5%; the percent labeling under setting [4] is 26.6%; the percent labeling under setting [5] amounted to 27.9%; the percent labeling under setting [6] worked out at 24.1%. Besides, the percent labeling stood at 38.8% under setting [7]; 37.7% under setting [8]; 16.7% under setting [9]; 25% under setting [10]; 16.7% under setting [11]; 40.4% under setting [12].

In the case of `O=C(CCS)NC[C@@H]1Cc2ccccc2CO1`, the percent labeling was determined as 21.8% under setting [2]; 32.3% under setting [3]; 37.6% under setting [4]; 33.6% under setting [5]; 40.5% under setting [6]; 31.7% under setting [7]. Besides, the percent labeling turned out to be 23.1% under setting [9], 41.1% under setting [10], 38.6% under setting [11] and 56.5% under setting [12].

`O=C(CC(O)(c1nc2ccccc2s1)C(F)(F)F)NCCS` (stereo unspecified) came in with a percent labeling under setting [1] of 50.2%; a percent labeling under setting [2] of 12.4%; a percent labeling under setting [3] of 23.1%; a percent labeling under setting [4] of 16.8%; a percent labeling under setting [5] of 21.6%; a percent labeling under setting [6] of 17.7%. The percent labeling under setting [7] is 23%; the percent labeling under setting [8] was found to be 22.1%; the percent labeling under setting [9] was determined as 11.7%; the percent labeling under setting [10] was 16.2%; the percent labeling under setting [11] turned out to be 10.5%; the percent labeling under setting [12] is 18.4%.

For `COc1ccc(CCNC(=O)CCS)cc1Br`, the percent labeling is, setting by setting: under setting [2], 16.5%; under setting [3], 34.2%; under setting [4], 33.2%; under setting [5], 20.5%; under setting [6], 27.2%; under setting [7], 48.6%. This compound also displayed a percent labeling under setting [9] of 17.9%, a percent labeling under setting [10] of 25.4%, a percent labeling under setting [11] of 23% and a percent labeling under setting [12] of 43.4%.

As for `CCC(C)n1ncc2c(C(=O)NCCS)cc(C)nc21` (stereo unspecified), the percent labeling reads like this: under setting [1], 48.1%; under setting [2], 16.2%; under setting [3], 22.1%; under setting [4], 18.7%; under setting [5], 25%; under setting [6], 24.7%. Moreover, the percent labeling is 49.5% under setting [7]; 32.7% under setting [8]; 17.2% under setting [9]; 18.6% under setting [10]; 22% under setting [11]; 44% under setting [12].

As to `O=C(CCS)N(Cc1nc2ccccc2c(=O)[nH]1)CC1CCCO1` (stereo unspecified), the percent labeling by setting is: under setting [2], 12.2%; under setting [3], 34.4%; under setting [4], 33.2%; under setting [5], 33.9%; under setting [6], 40.4%; under setting [7], 34.3%. Also, the percent labeling is, setting by setting: under setting [9], 19.8%; under setting [10], 62.3%; under setting [11], 29.2%; under setting [12], 59.1%.

`Cc1sc2ncnc(N3CCC(C(=O)NCCS)CC3)c2c1C`: the percent labeling runs as follows: under setting [1], 31%; under setting [2], 13.7%; under setting [3], 15.2%; under setting [4], 10.4%; under setting [5], 12.1%; under setting [6], 8%. Moreover, the percent labeling reads like this: under setting [7], 20.7%; under setting [8], 22.6%; under setting [9], 6.1%; under setting [10], 9.1%; under setting [11], 4.5%; under setting [12], 22.3%.

In turn, `O=C(NCCS)c1cc(-c2ccc3c(c2)CCO3)no1` showed a percent labeling under setting [1] of 10.9%; a percent labeling under setting [2] of 5.4%; a percent labeling under setting [3] of 10.1%; a percent labeling under setting [4] of 8%; a percent labeling under setting [5] of 14.1%; a percent labeling under setting [6] of 7.2%. Further, the percent labeling reads like this: under setting [7], 49.7%; under setting [8], 19.2%; under setting [9], 10%; under setting [10], 10.1%; under setting [11], 8.4%; under setting [12], 13.8%.

In the case of `O=C(CCS)Nc1cc(F)c(F)cc1N1CCOCC1`, the percent labeling turned out to be 17.7% under setting [2]; 30.7% under setting [3]; 35.3% under setting [4]; 23.5% under setting [5]; 29.4% under setting [6]; 43.2% under setting [7]. In addition, the percent labeling came out at 25.3% under setting [9], 26.5% under setting [10], 23.9% under setting [11] and 39% under setting [12].

As to `O=C(NCCS)c1cnnn1Cc1ccccc1`, the percent labeling is 47.3% under setting [1]; 32.9% under setting [2]; 31.2% under setting [3]; 22.3% under setting [4]; 32% under setting [5]; 43% under setting [6]. Also, the percent labeling was determined as 65.1% under setting [7]; 36% under setting [8]; 24.2% under setting [9]; 26.9% under setting [10]; 23.9% under setting [11]; 48.3% under setting [12].

Take `O=C(CCS)NCCNc1ncccc1C(F)(F)F`: the percent labeling amounted to 17.1% under setting [2]; 40.6% under setting [3]; 41.6% under setting [4]; 42.8% under setting [5]; 46% under setting [6]; 37% under setting [7]. The percent labeling runs as follows: under setting [9], 36%; under setting [10], 36.6%; under setting [11], 36.2%; under setting [12], 57%.

With `O=C(NCCS)c1cc(-c2ccc(Cl)cc2)ns1`, the percent labeling reads like this: under setting [1], 34.6%; under setting [2], 14.9%; under setting [3], 14.6%; under setting [4], 10.9%; under setting [5], 12.8%; under setting [6], 9.4%. The percent labeling under setting [7] was determined as 32.7%; the percent labeling under setting [8] is 33.4%; the percent labeling under setting [9] was determined as 12%; the percent labeling under setting [10] was found to be 10.4%; the percent labeling under setting [11] was 8.7%; the percent labeling under setting [12] was found to be 13.4%.

`Cn1cc(-c2ccccc2)nc1C(=O)NCCS`: the percent labeling is, setting by setting: under setting [1], 15.9%; under setting [2], 10.5%; under setting [3], 11.5%; under setting [4], 7.2%; under setting [5], 10.3%; under setting [6], 10.6%. In addition, the percent labeling by setting is: under setting [7], 22.2%; under setting [8], 30.4%; under setting [9], 4.9%; under setting [10], 8.3%; under setting [11], 6.2%; under setting [12], 15.6%.

As for `O=C(CCS)NC1CC(c2cccc(Cl)c2)C1` (stereo unspecified), the percent labeling reads like this: under setting [2], 8.6%; under setting [3], 16.4%; under setting [4], 15.7%; under setting [5], 13.3%; under setting [6], 13.6%; under setting [7], 21.2%. Also, the percent labeling is, setting by setting: under setting [9], 7.5%; under setting [10], 17%; under setting [11], 13.4%; under setting [12], 29.4%.
